# The other results are listed elsewhere or left out. At the low end of the ranking the order means little.
# System: T1, GST-NbGlk1(82-244)
# T1 sequence: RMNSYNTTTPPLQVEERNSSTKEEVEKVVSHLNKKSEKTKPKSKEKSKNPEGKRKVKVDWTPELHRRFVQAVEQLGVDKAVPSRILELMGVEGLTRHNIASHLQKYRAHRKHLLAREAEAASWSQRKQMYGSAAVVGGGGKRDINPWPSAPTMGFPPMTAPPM
# Experiment: protein-binding microarray;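 also: rank-based score ranging −0.5 to +0.5 with E above 0.45 taken as significant binding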
# Settings: NbGlk1 is a Golden2-like transcription factor of Nicotiana benthamiana; high values mean tight binding; most listed sequences are background and not binding sites; double strand, one strand shown
row,Sequence,binding signal [E-score]
1,AGAGGAAA,-0.0222
2,AATCCTCC,0.375
3,ATCTAATG,0.243
4,ACCTTGTC,-0.18
5,CACGCGGG,-0.264
6,ACTAGAAC,-0.00464
7,AGACCAAG,-0.166
8,AATCCATT,0.38
9,CACGGAAA,0.0439
10,AAGAAGAT,0.293
11,AAAACAGC,0.0536
12,AGGGTACG,-0.119
13,AGGCGGAA,-0.112
14,ACATATAT,0.237
15,AGTATGAA,-0.0112
16,CACCCTAG,-0.00767
17,CAATGGGG,-0.0549
18,ATTCGGGG,0.132
19,AACGCTCG,-0.182
20,AGTTGTAA,0.0178
21,ATTACGGG,0.264
22,ACCCTTTG,-0.188
23,AGTGACCG,-0.192
24,ACTCCCAA,-0.124
25,AGCTCGGC,-0.153

row,Sequence,binding signal [E-score]
1,AACATGTA,-0.0556
2,ACAACGAT,0.168
3,AGATTACG,0.484
4,AGCCGTGG,-0.243
5,ATTACCCA,0.234
6,AAGAGAGA,-0.239
7,ATCCATGA,0.232
8,ACCTCATA,-0.025
9,ACATCAAA,-0.0694
10,ACAATCAT,0.221
11,ACAGAGCG,-0.069
12,AAAACTAC,0.0385
13,AGAGAGCT,-0.191
14,AAAAGCGC,0.142
15,ATTTGAGG,0.0896
16,AGGAAGTA,-0.00318
17,AAAAGTAT,0.0474
18,ATGTACTA,-0.018
19,AGCTCTCG,-0.171
20,AAACTCTT,0.0141
21,AGTGTGCA,0.015
22,CAACTCGC,-0.125
23,AATATTAA,0.269
24,ATGCTGGA,0.00755
25,ATTATCCA,0.182

row,Sequence,binding signal [E-score]
1,ATGCACGC,-0.127
2,AGATAGAA,0.00709
3,AACTTACA,-0.0234
4,ACTTTCAA,-0.0734
5,CACACGTG,-0.229
6,ATCTCTGC,0.311
7,ATAACGGG,-0.0173
8,ACGAAGGC,-0.199
9,ACGATTCT,0.362
10,AGGCGATC,0.317
11,AGGAGGAG,-0.228
12,AACACTCG,-0.0786
13,CACTTGAA,-0.0798
14,AATCTTTA,0.352
15,ACGCTGGC,0.0255
16,ACGCAATC,0.48
17,ATCAATAA,0.0962
18,ACGGCCCG,-0.266
19,ATGGATAG,0.101
20,ACCTTGAA,-0.0681
21,ATGACCGG,-0.00945
22,AACAGCAA,0.00563
23,ACATCTAT,0.0249
24,ATGCAGCA,-0.212
25,CACTCGTC,-0.21

row,Sequence,binding signal [E-score]
1,CACTCTAC,-0.049
2,ACTGAAGT,-0.186
3,ATCTCGTC,0.319
4,ATACCAAT,0.111
5,ACCAACCG,-0.107
6,AAGCCCTG,-0.28
7,AATACTGT,0.0835
8,AGGTCAAA,0.0176
9,AGGGTTCA,-0.199
10,ATAAACCA,0.0151
11,ATAATGCC,0.0577
12,ACCGGTAA,0.0911
13,CAAAAGCG,-0.0616
14,AATTGCAC,0.123
15,AATAGTGG,0.0493
16,CAAAGCAG,-0.00643
17,AAATCCAG,0.413
18,AAGTCGAA,0.00519
19,ACGAATTA,0.0986
20,AATCATAG,0.246
21,ATTTGGCC,0.00278
22,CAGAGTTC,-0.0546
23,ACCGCCGG,-0.14
24,ACCGGGAA,-0.162
25,CAATACCA,0.0755

row,Sequence,binding signal [E-score]
1,AGAGATCT,0.411
2,ATGCAGGA,0.0934
3,AGGGGCGC,-0.203
4,ACCTCCCT,-0.255
5,ACCTCCCA,-0.202
6,CACCGTGA,-0.09
7,ACTTAGAC,-0.0535
8,AACATAGG,0.00817
9,ATTGGTGC,-0.0544
10,AAATTGGA,0.0115
11,ATGGAGTC,-0.0927
12,CACTTAGA,0.0624
13,AGAGCGCT,-0.104
14,CACAACAG,-0.0412
15,AGCGGCTC,-0.353
16,AGTCCAGA,0.0263
17,AGCGAATA,0.198
18,ACCGACGA,-0.0924
19,CAATGTAG,-0.0395
20,AGACGCCG,-0.263
21,ACGCCAAA,-0.0577
22,AGGGCAAT,0.201
23,AGATGAAG,-0.123
24,ACTAGGAC,-0.0719
25,AAACTCGA,0.0527

row,Sequence,binding signal [E-score]
1,CAACGGCA,-0.136
2,ATAGCAGC,-0.15
3,AAGTGAAA,0.0784
4,ACGACGAG,-0.27
5,AAACCATG,-0.0579
6,ATCTTCTC,0.311
7,AGCTCTTG,-0.129
8,CACGAAGA,0.117
9,ATCATCAT,-0.0177
10,ATGAGCCG,-0.245
11,AGTCACTG,-0.163
12,CACACGTA,0.0494
13,ATGGCGTC,-0.275
14,ATGTTACG,0.0238
15,CAGACGGA,0.0222
16,ACGACTTA,-0.0238
17,ATTGACCA,-0.0678
18,AGACTCCC,-0.266
19,ATTACCCG,0.13
20,ACCTCTTG,-0.205
21,ACTGCCCG,-0.223
22,ATGTACAA,0.00403
23,ATTAGTAC,0.072
24,AAATAATG,0.13
25,AGTCGCAA,0.192

row,Sequence,binding signal [E-score]
1,ACACAAGT,-0.00427
2,AAGCGAAA,0.0889
3,ACGTTGAG,-0.0847
4,AGTTTTGC,0.0151
5,ATGCTACG,-0.0277
6,ACCATGAT,0.12
7,AAACCCAT,-0.245
8,AACGTGTG,-0.0474
9,ACCCTTTC,-0.338
10,AAATTTGC,0.224
11,AGGCCGAC,-0.245
12,ACTGCTTC,-0.156
13,AGAGGGAG,-0.168
14,AGCCGTAC,-0.0873
15,AGCACACG,-0.219
16,ATTAGTTG,0.12
17,AGCCATTA,-0.123
18,ACAACGTC,-0.115
19,ATTGGATA,0.318
20,ACGAATAG,-0.0329
21,AGACAGAC,-0.0362
22,AGTAGATC,0.172

# Source: article PMC5836133
